# Source: PMC4336329 (PLoS ONE, 2015)
# The whole screen tested about 310,000 compounds, of which about 2,200 (0.71%) showed an effect of 50% or more. The effect is printed as a negative number. Some of the results follow.
# Biological target: human ether-à-go-go-related gene (hERG) potassium channel (human, UniProt Q12809)
# Test: primary screen, population patch clamp on CHO cells stably expressing hERG
# human ether-à-go-go-related gene (hERG) potassium channel, sequence (Q12809 whole entry, looked up): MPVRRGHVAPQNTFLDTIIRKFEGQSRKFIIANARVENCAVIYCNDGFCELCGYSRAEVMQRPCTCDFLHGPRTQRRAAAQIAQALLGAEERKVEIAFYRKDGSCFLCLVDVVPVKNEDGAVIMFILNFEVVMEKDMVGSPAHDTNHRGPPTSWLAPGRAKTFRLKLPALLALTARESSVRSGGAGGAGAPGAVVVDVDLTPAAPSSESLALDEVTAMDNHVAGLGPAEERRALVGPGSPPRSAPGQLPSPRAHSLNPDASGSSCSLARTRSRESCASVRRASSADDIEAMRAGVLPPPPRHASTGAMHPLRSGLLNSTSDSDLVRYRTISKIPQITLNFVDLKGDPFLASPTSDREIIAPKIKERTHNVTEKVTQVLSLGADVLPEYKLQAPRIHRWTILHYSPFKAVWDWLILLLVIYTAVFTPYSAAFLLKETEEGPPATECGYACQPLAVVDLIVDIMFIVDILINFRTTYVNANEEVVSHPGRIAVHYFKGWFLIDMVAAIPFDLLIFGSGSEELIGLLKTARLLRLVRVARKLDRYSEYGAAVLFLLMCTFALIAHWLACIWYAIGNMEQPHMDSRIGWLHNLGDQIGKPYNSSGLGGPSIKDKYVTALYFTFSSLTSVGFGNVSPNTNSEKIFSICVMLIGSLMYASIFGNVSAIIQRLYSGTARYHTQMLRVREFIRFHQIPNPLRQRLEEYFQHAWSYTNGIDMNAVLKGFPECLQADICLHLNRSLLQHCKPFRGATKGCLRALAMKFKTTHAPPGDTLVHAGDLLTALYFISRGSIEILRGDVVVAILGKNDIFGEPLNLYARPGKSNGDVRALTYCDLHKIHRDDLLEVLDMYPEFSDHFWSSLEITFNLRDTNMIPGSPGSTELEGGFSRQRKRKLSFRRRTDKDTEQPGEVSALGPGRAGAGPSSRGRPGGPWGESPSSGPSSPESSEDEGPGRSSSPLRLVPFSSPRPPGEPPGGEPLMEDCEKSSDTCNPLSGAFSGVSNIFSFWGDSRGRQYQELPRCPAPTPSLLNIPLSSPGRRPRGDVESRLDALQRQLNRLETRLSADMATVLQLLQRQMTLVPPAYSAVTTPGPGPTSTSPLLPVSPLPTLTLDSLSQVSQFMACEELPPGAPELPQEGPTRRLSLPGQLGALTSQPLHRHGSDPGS
row,Structure (SMILES),"hERG current change (%, negative = inhibition) at 1uM [%]"
1,CSc1nc2ccc(NC(=O)C3CCCO3)cc2s1 (stereo not drawn),3.92
2,COC(=O)NNC(=O)c1ccc(C)c(Br)c1,16.4
3,Cc1c(O)ccc2cc(S(=O)(=O)c3ccccc3)c(=O)oc12,14
4,Cc1cccc(N2CCN(S(=O)(=O)c3ccc(S(=O)(=O)N4CCCC4)cc3)CC2)c1C,10.3
5,CCN(CC)c1ccc(-c2nc3cnccn3c2NC2CCCC2)cc1,5.75
6,CN1C[C@@H]2C(c3ccc(Cl)nc3)C3(c4ccccc4)CC2(C3)[C@H]1c1ccccc1 (stereo partly drawn),2.6
7,COc1ccccc1CN(CC(=O)NCc1ccc2c(c1)OCO2)C(=O)c1ccc2c(c1)OCCO2,7.55
8,Cc1cc(C(=O)Nc2cccc([N+](=O)[O-])c2)c(C)o1,4.4
9,CC(C)(C(=O)c1ccccc1)/[N+]([O-])=C/c1ccccc1F,9.19
10,O=C(NCc1cccnc1)C(=O)NC1CCCCC1,-3.95
11,Brc1ccc(C2=Nc3ccccc3C(c3ccncc3)=NN2)cc1,14.5
12,CCOC(=O)c1nnn(-c2nonc2N)c1COc1c(C=O)cccc1OC,-12.9
13,CC(C)(C)OC(=O)CN1c2cccc3cccc(c23)S1(=O)=O,8.39
14,CCc1ccc2nc(NC(=O)c3cc(C)on3)sc2c1,3.39
15,C=CCNc1ncnc2c1cnn2-c1cccc(C)c1,7.45
16,CC1(N2CCOCC2)C(=O)c2ccccc2C1=O.Cl,-8.82
17,Cc1nn(C)c(C(=O)N/N=C/c2cccnc2)c1Br,16.9
18,c1ccc(Cc2ccc(OCCn3cncn3)cc2)cc1,-1.47
19,COC(=O)C1=C(c2ccc(F)cc2OCc2ccccc2)C[C@@H]2CC[C@H]1N2C(=O)NCc1ccco1,2.23
20,CCCCN(C(=O)c1ccc(S(=O)(=O)N2CCCC2)cc1)C1CCS(=O)(=O)C1 (stereo not drawn),6.71
21,Cc1cccc(OCC(=O)Nc2cccc(-c3nnc(-c4ccccc4)o3)c2)c1C,1.91
22,CC(C)C1(C)N=C(c2nc3ccccc3cc2C(=O)O)NC1=O (stereo not drawn),-0.255

row,Structure (SMILES),"hERG current change (%, negative = inhibition) at 1uM [%]"
1,COc1ccc(S(=O)(=O)N2CC(C(=O)O)Oc3ccccc32)cc1 (stereo not drawn),16
2,O=C(CSc1nnc(-c2ccco2)n1-c1ccccc1)NCc1ccco1,-19.1
3,Cc1cc(NC(=O)CCC(=O)N(c2cccnc2)C(C(=O)NC2CCCC2)c2ccccc2F)no1 (stereo not drawn),8.56
4,O=C(Nc1cccc(F)c1)C1CCCN(S(=O)(=O)c2ccc(-n3cnnn3)cc2)C1 (stereo not drawn),-2.85
5,Cc1ccc(-c2csc3ncnc(N4CCN(c5ccccc5O)CC4)c23)cc1,18.7
6,Cc1ccc2cc(C=C(C#N)C#N)c(N3CCCCC3)nc2c1,9.77
7,COc1cc2cc(C)nc(Cc3cccc4ccccc34)c2cc1OC,10.1
8,CCOC(=O)C1CCN(C(=O)c2cccc(S(=O)(=O)Nc3ccc(C)cc3C)c2)CC1,17.5
9,COCCCNc1nc(N)c([N+](=O)[O-])c(Nc2ccccc2OC)n1,17.4
10,CCc1sc2nc(SCC(=O)Nc3cc(C)on3)n(-c3cccc(OC)c3)c(=O)c2c1C,26.6
11,CCOC(=O)C1CCCN(c2ncnc3c2cnn3-c2cccc(C)c2)C1 (stereo not drawn),-4.9
12,O=C(O)Cc1c(-c2ccccc2Cl)c2cc(Br)ccc2[nH]c1=O,4.33
13,Fc1ccccc1-c1n[nH]c(=S)n1Cc1ccccc1,16.6
14,Cc1ccc(S(=O)(=O)C2(C(=O)Nc3cccnc3)CC2)cc1,3.33
15,C/C(=N\NC(=O)COc1ccc(C#N)cc1)c1ccccc1OC(F)F,6.16
16,CCS(=O)(=O)c1cc([N+](=O)[O-])c(Sc2ccccc2N)s1,9.09
17,O=C(/C=C/c1ccco1)Nc1ccc2nn(-c3ccccc3)nc2c1,5.34
18,COc1cccc(NS(=O)(=O)c2ccc3[nH]cc(C(=O)N(C)Cc4ccco4)c(=O)c3c2)c1,15.6
19,O=C(CCc1ccc(O)c(O)c1)NNC(=S)NCCc1ccccc1,11.3
20,CC(=O)OC1(c2ccccc2)CCN(C)CC1(C)C.Cl (stereo not drawn),21.7
21,O=C(COC(=O)/C=C/c1cccc(C(F)(F)F)c1)NCc1ccc(F)cc1,12.1
22,Cc1ccc(S(=O)(=O)NCC(=O)OCC(=O)N2N=C(c3ccc(Cl)cc3)CC2c2ccco2)cc1C (stereo not drawn),13.2

row,Structure (SMILES),"hERG current change (%, negative = inhibition) at 1uM [%]"
1,O=C(CNC(=O)c1ccccc1F)OCn1nnc2ccccc2c1=O,7.99
2,COc1ccc(/C=N/NC(=O)c2ccncc2)c(C(=O)O)c1OC,6.43
3,Cc1cccc(Nc2nnc(SCC(=O)c3ccc(Br)s3)s2)c1C,15.2
4,O=C(CCCCCn1nnc2ccccc2c1=O)N[C@H](C(=O)O)c1ccccc1,13.9
5,O=C(CSc1ccc2c(c1)OCCO2)N1CCN(c2ccccc2)CC1,6.52
6,COc1cccc(-n2c(CN3CCN(C)CC3)nc3ccc([N+](=O)[O-])cc3c2=O)c1,1.46
7,COc1ccc(-c2nnn(CC(=O)c3ccccc3)n2)cc1OC,9.19
8,CCOc1ccccc1-n1c(O)c(C=NCCCn2ccnc2)c(=O)[nH]c1=O,14.1
9,CC(C)CN(CC(C)C)C(=O)c1cc2c(=O)n3ccccc3nc2s1,12.9
10,O=c1c2ccccc2nnn1COc1cccc2ccccc12,12
11,O=c1nc2n(c3ncccc13)CCCCC2,6.48
12,O=C(O)C(Oc1ccc2c(c1)oc(=O)c1ccccc12)c1ccccc1 (stereo not drawn),14.6
13,Cc1ccc(C(=O)Nc2ccc(C(=O)N/N=C/c3cccnc3)cc2)cc1,14.6
14,CCOC(=O)c1nn(-c2cccc(OC)c2)c(-c2ccccc2)c1C(=O)c1ccccc1,11.6
15,COc1ccc2[nH]c(=O)c(CN(Cc3cccs3)C(=S)Nc3ccccc3)cc2c1,13.5
16,COCCn1c(SCC(=O)Nc2ccccc2C(F)(F)F)nc2ccccc2c1=O,7.76
17,CN(C)S(=O)(=O)c1ccc(N2CCCC2)c(C(=O)NC2CCCCC2)c1,-4.83
18,CCOC(=O)C1CCCN(C(=O)Cc2ccc(OC)c(OC)c2)C1 (stereo not drawn),16.5
19,CCOC(=O)C1CCN(Cc2ccc(F)cc2)CC1,-0.788
20,CCc1c(C)nc2[nH]nc(-c3ccccc3)n2c1=O,16.3
21,CC(C)[C@@]1(c2ccc(Cl)cc2)ON(c2ccccc2C(F)(F)F)C1=O,-0.157
22,Cc1c(N)c(=O)n(-c2ccccc2)n1C,17.2

row,Structure (SMILES),"hERG current change (%, negative = inhibition) at 1uM [%]"
1,Cc1nnc2c(NC3CCCC3)nc3ccccc3n12,6.69
2,CCCCCC(=O)N1CCN(CCN=CC2=C(O)CC(c3ccc(OC)c(OC)c3)CC2=O)CC1 (stereo not drawn),-56.5
3,O=C(c1ccncc1)c1ccc(N2CCN(C3CC(=O)N(Cc4cccs4)C3=O)CC2)cc1 (stereo not drawn),-8.32
4,Cc1ccc(N=Nc2ccc3ccccc3c2O)cc1,9.14
5,O=C(CSc1ccsc1[N+](=O)[O-])NC1CCCC1,10.6
6,O=C(CSc1ccc([N+](=O)[O-])cn1)Nc1nccs1,5.78
7,O=C(C1CCCN(S(=O)(=O)c2cccnc2)C1)N1CCN(c2ccccn2)CC1 (stereo not drawn),6.53
8,COc1ccc(C(CNC(=O)c2cc3ccccc3o2)N2CCCCC2)cc1 (stereo not drawn),-9.02
9,CCCc1nc(SCC(=O)c2ccc(F)cc2)c2ccccc2n1,17.8
10,Nn1c(Cc2ccccc2)nc2cc(Cl)ccc2c1=O,15.1
11,N#Cc1nc(-c2ccccc2F)oc1N1CCCCC1,22.6
12,CCN(CC)CCC#CC(O)(c1ccccc1)c1ccccc1,-4.15
13,O=C(Cc1ccccc1Cl)N1CCN(c2ccccn2)CC1,4.35
14,CC(C)(C)NC(=O)C(c1ccncc1)N(C(=O)c1csnn1)c1ccccc1 (stereo not drawn),3.06
15,COc1ccc(NC(=S)NCC2CCCO2)c(OC)c1 (stereo not drawn),16.6
16,COc1cc(OC)cc(C(=O)N[C@H](C(=O)Nc2nnc(C3CC3)s2)C(C)C)c1,10.2
17,NC(=O)c1nsc(C(=O)N(Cc2ccco2)C(C(=O)NCC2CCCO2)c2ccc(O)cc2)c1N (stereo not drawn),11.6
18,COc1ccc(S(=O)(=O)N2N=C(C)Oc3ccccc3C2=O)cc1,5.97
19,O=C(C1=C(O)C(=O)N(CCN2CCOCC2)C1c1cccc([N+](=O)[O-])c1)c1cccs1 (stereo not drawn),9.7
20,COC(=O)c1ccc(Sc2nnnn2-c2ccccc2)c([N+](=O)[O-])c1,6.33
21,COc1ccc(C)cc1NC(=O)COC(=O)c1ccc(OCc2ccc(Cl)cc2Cl)c(OC)c1,13.4
